Source: PubChem BioAssay AID463173 (ICCB-Longwood Screening Facility, Harvard Medical School, 2010)
About 1,700 (3.3%) of roughly 52,000 compounds were called active. No stated cut-off is given here; in the data, active means survival mostly below about 52% (no sharp cut-off); inactive means mostly above about 56%. Some of the results follow.

Tested on: Wild type
Test: growth inhibition of S. aureus wild type versus tarO mutant, primary screen, teichoic acid synthesis inhibitors, RN4220, OD600 (AID 463173)
Conditions: S. aureus RN4220 wild type/DeltatarO growth, OD600, 18 h, hits give low values, screened at 18.75 µg/mL (by protocol)

Row | Structure (SMILES) | survival
1 | Cn1c(=O)c2c(-c3ccccc3Cl)n(Cc3ccc(Cl)cc3)cc2n(C)c1=O | inactive: 54%
2 | Cc1cccc(N2CCN(C(=O)CCC(=O)NNc3nc4ccccc4c4nc(C)nn34)CC2C)c1 (configuration not stated) | inactive: 92%
3 | CCc1ccccc1NC(=O)CN1C(=O)COc2ccc(S(=O)(=O)Nc3ccccc3)cc21 | inactive: 64%
4 | CC1NC(=O)NC2NC(=O)NC(C)C12 (configuration not stated) | inactive: 118%
5 | COc1cc(C2c3c(-c4c(C)cc(C)cc4O)n[nH]c3C(=O)N2CCCOC(C)C)cc(OC)c1OC (configuration not stated) | inactive: 99%
6 | COc1ccccc1Cc1nc2ccccc2nc1SCC(=O)Nc1ccccc1C(F)(F)F | inactive: 77%
7 | COc1ccc(-c2nc3c(C#N)c[nH]n3c2NC2CCCC2)cc1 | inactive: 70%
8 | CNC(=O)Nc1ccc2nc(C)sc2c1 | inactive: 112%
9 | Cc1ccc(N2CC(c3nnc(Cc4ccccc4Cl)o3)CC2=O)cc1 (configuration not stated) | inactive: 39%
10 | CCOc1ccc(CNCc2c(C(=O)O)n(Cc3ccc(OC)cc3)c3ccccc23)cc1 | inactive: 82%
11 | COc1ccc(N(C(=O)c2ccc(Cl)cc2)S(=O)(=O)c2ccc(C)cc2)cc1 | inactive: 81%
12 | COc1ccc(S(=O)(=O)n2nc(-c3ccco3)nc2NCc2ccc(OC)c(OC)c2)cc1 | inactive: 81%
13 | C/C=C/NC(=O)c1nc2c(nnn2Cc2ccc(C)cc2)c(=O)[nH]1 | inactive: 99%
14 | COc1cccc(-c2[nH]c3c(c2-c2c(-n4cccc4)n(C)c(=O)[nH]c2=O)c(=O)[nH]c(=O)n3C)c1 | inactive: 86%
15 | CN(C)c1ccc(CNC(=O)CCn2c(=O)c3cccn3c3ccc(F)cc32)cc1 | inactive: 80%
16 | COCCCNc1nc2c(c(=O)n(C)c(=O)n2C)n1Cc1ccccc1 | inactive: 106%
17 | COCCOC(=O)C1=C(C)N=C2SCCC(=O)N2C1c1ccc(OCc2ccccc2)c(OC)c1 (configuration not stated) | inactive: 64%
18 | CC(C)COC(=O)Nc1ccc2c(c1)OCO2 | inactive: 102%
19 | COc1ccccc1N1CCN(c2cc(C)nc3c(-c4ccc(Cl)cc4)c(C)nn23)CC1 | inactive: 76%

Row | Structure (SMILES) | survival
20 | CCc1nnc2c(NCc3cccc(OC)c3)nc3ccccc3n12 | inactive: 87%
21 | COCCNC(=O)CCSc1nc(-c2ccc3c(c2)OCO3)cc(C(F)(F)F)n1 | inactive: 60%
22 | Cc1ccc(C(=O)N2CCc3cc(CNC(=O)c4ccnn4C)ccc32)cc1 | inactive: 77%
23 | CCN(CC)S(=O)(=O)c1ccc2c(c1)c(=O)c(C(=O)NCc1ccccc1OC)cn2C | inactive: 80%
24 | CCOC(=O)C1=C(N)OC2=C(C(=O)CC(C)(C)C2)C1c1ccccc1 (configuration not stated) | inactive: 115%
25 | O=C(NCc1ccc2c(c1)CCN2C(=O)c1ccccc1)c1ccc(Br)o1 | inactive: 69%
26 | Cc1cn(C)c(CC(=O)N2CCN(c3ccc(F)cc3)CC2)c1C(=O)O | inactive: 133%
27 | Cc1ccc(NS(=O)(=O)c2ccc3c(c2)NC(=O)CCS3)cc1F | inactive: 63%
28 | COC(=O)c1ccccc1NC(=O)Cn1nc(C(F)(F)F)c2c1CCCC2 | active: -5%
29 | CC1CCCCN1c1nc(-c2ccc(C(C)(C)C)cc2)nc2ccccc12 (configuration not stated) | active: 1%
30 | COc1cc(NC(=O)Cn2c(=O)nc(-c3ccccc3F)c3cc(Cl)ccc32)cc(OC)c1 | inactive: 124%
31 | Cc1ccc(C)c(N2CCN(C(=O)Cn3c(C)c4cnn(-c5ccccc5)c(=O)c4c3C)CC2)c1 | inactive: 116%
32 | CCN(C(=O)Cn1cc(C(=O)c2ccc(F)cc2)c(=O)c2ccc(C)nc21)c1cccc(C)c1 | inactive: 70%
33 | Cc1sc2nc(C)n(NC(N)=O)c(=O)c2c1C | inactive: 96%
34 | CCOc1ccc(C(=O)N2CCC(c3ccncc3)CC2)cc1 | inactive: 78%
35 | CCCCOc1ccc(CNC(=O)c2cnc3sc(N4CCC(C)CC4)nn3c2=O)cc1 | inactive: 127%
36 | COc1cccc(-n2c(-c3ccc(C)cc3)cc3c2CC(C)(C)CC3=O)c1 | inactive: 21%
37 | CCC1CN(C(=O)N2CCC(C(=O)NCc3ccco3)CC2)c2cc(C)ccc2O1 (configuration not stated) | inactive: 87%
38 | CC(C)c1nc2ccc(C(=O)NCCCN3CCN(c4ccc(F)cc4)CC3)cc2o1 | inactive: 81%

Row | Structure (SMILES) | survival
39 | CC(C)c1ccc2occ(CC(=O)Nc3cccc(C(F)(F)F)c3)c2c1 | active: 0%
40 | COc1ccc(OC)c(NC(=O)CCc2c(C)nc3c(c(C)nn3C(C)(C)C)c2C)c1 | inactive: 90%
41 | Cc1cc(C)c2c(CC(=O)Nc3c(C(=O)c4ccc(F)cc4)oc4ccccc34)coc2c1 | inactive: 89%
42 | Cc1ccc2c(c1)CC(C)N2S(=O)(=O)c1nnc(NC(=O)CC(C)C)s1 (configuration not stated) | inactive: 82%
43 | CCc1ccc(NC(=O)c2ccc3c(O)c(S(=O)(=O)c4ccccc4)c(=O)[nH]c3c2)cc1 | inactive: 84%
44 | COc1ccccc1C(=O)Nc1ccc(OCc2cc(=O)n3cccc(C)c3n2)cc1 | inactive: 78%
45 | Cc1c(NC(=O)c2ccc(Cl)cc2)cc(C(C)C)c(O)c1S(=O)(=O)c1ccccc1 | inactive: 76%
46 | CCOC(=O)Cn1nc[n+]2[nH]c(C)cc(=O)c12 | inactive: 106%
47 | COc1ccccc1CNC(=O)CCc1c(C)nn(-c2ccc(N3CCCC3)nn2)c1C | inactive: 68%
48 | O=C(NCC1CCN(Cc2ccccc2Cl)CC1)c1cc2ccc3cccnc3c2[nH]1 | inactive: 45%
49 | Cc1cc(NC(=O)CSc2nc3c([nH]c4ccccc43)c(=O)n2-c2ccc(Cl)cc2)no1 | inactive: 77%
50 | COc1ccccc1CNC(=O)CCS(=O)(=O)c1ccc2c(c1)CC(C)N2C(=O)C1CC1 (configuration not stated) | active: 0%
51 | Cc1cc(=O)n(Cc2ccccc2Cl)c2c1c(C)nn2-c1ccccc1 | inactive: 73%
52 | O=c1oc2ccc(F)cc2cc1-c1nc(-c2cccs2)no1 | inactive: 94%
53 | Cc1ccc(CSc2nc3ccsc3c(=O)n2CCC(C)C)cc1 | active: -6%
54 | O=C(CC1Oc2ccccc2NC1=O)NCc1ccc(F)cc1 (configuration not stated) | inactive: 128%
55 | COc1ccc(CC(=O)Nc2nnc3n2CCS3)cc1 | inactive: 127%
56 | CCn1c2c(c(=O)n3ncc(C(=O)Nc4ccc(F)cc4Cl)c13)CN(Cc1ccc(OC)cc1)CC2 | active: 14%
57 | CCN1CCN(C(=O)c2ccc3c(c2)N(Cc2ccc(F)cc2)C(=O)c2ccccc2S3(=O)=O)CC1 | inactive: 126%
